Assay results: PubChem BioAssay AID1745845 (National Center for Advancing Translational Sciences (NCATS), 2022)
The campaign covered roughly 360,000 compounds. About 2,600 (0.72%) were called active. Inconclusive results, whose numbers are uncertain, are shown with a selection of clear calls. The call rests on the fitted dose curve; in most records, active means well fitted inhibition curve with a large enough effect; inconclusive means small, poorly fitted or top-dose-only effect; inactive means no such curve, though single readings can be large or run the other way. A potency beside an inconclusive call is a rough fit, not a confirmed value.

Assay: Primary qHTS for Inhibitors of ATXN expression; further: nearly all actives have a fitted effect of over 55% in size
Details: HEK-293 ATXN2-luciferase reporter, luminescence, 24 h; activity change, negative = inhibition: at 57 µM (top of the series)
Summary of the method: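 qHTS (up to 57 uM final) was run with 24 h compound exposure of reporter cells at 37 °C. Each well was multiplexed: SteadyGlo luminescence measured ATXN2-luciferase expression after a fluorogenic Gly-Phe-AFC viability readout (25 uM final).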
On the % scale 0 is the no-effect control and ±100 the full control effect; potency means the concentration at half of the fitted maximal effect; tags describe the fitted curve by direction and shape.

Potency, active:
CCCCn1c(N)c(N(CCC(C)C)C(=O)c2ccc(-c3ccc([N+](=O)[O-])cc3)o2)c(=O)[nH]c1=O 14.1 µM
CCOC(=O)/C(=C\c1ccccc1)C(=O)c1cc(C(C)=O)c(Nc2ccccc2)s1 11.2 µM
COc1cc(C(=O)N/N=C(\c2ccccc2)c2ccccn2)cc(OC)c1OC 2.51 µM
COc1ccc2nc(N=Nc3ccc(O)c4ccccc34)sc2c1 14.1 µM
N#Cc1nc(NCC(F)F)nc(Nc2cc(F)cc(F)c2)n1 11.2 µM
COc1cc([C@@H]2c3cc4c(cc3[C@@H](O[C@@H]3O[C@@H]5CO[C@@H](c6cccs6)O[C@@H]5[C@H](O)[C@@H]3O)[C@H]3COC(=O)[C@H]23)OCO4)cc(OC)c1O 0.172 µM
c1ccc(COc2ccccc2CNC23CC4CC(CC(C4)C2)C3)cc1 15.8 µM
CCN1CCCC1CNC(=O)c1cc2c(-c3ccc(Cl)cc3)nn(C)c2s1 (stereo unspecified) 25.1 µM

Potency, inconclusive:
CCOc1cccc(CC(=O)NCc2ccc3c(c2)CCN3C(=O)c2cccc(C)c2)c1OCC 20 µM [inhibitor, single point]
N#C/C(=N\Nc1ccc(Cl)cc1)C(=O)c1ccccc1 31.6 µM [inhibitor, single point]
CN1C(=O)/C(=C\c2ccccc2F)Sc2ccc(C(=O)NC3CCN(Cc4ccccc4)CC3)cc21 20 µM [inhibitor, partial curve, poor fit]
Cc1ccc(NC(=O)C2=C(c3ccccc3)S(=O)(=O)CCS2(=O)=O)cc1 3.55 µM [inhibitor, partial curve, poor fit]
CCc1ccc(NC(=O)N2CCN(c3nnc(C)c4c(C)n(-c5ccc(Cl)cc5)nc34)CC2)cc1 3.16 µM [inhibitor, partial curve, poor fit]
Cn1c(NCCN2CCCC2)nc2cc(-c3cccc(C(F)(F)F)c3)sc2c1=O 39.8 µM [inhibitor, single point]
CC(C)CN(C(=O)COC(=O)/C=C/c1ccc(Cl)c(Cl)c1)c1c(N)n(Cc2ccccc2)c(=O)[nH]c1=O 31.6 µM [inhibitor, single point]
Cc1ccc(S(=O)(=O)N2C[C@H]3n4c(=O)ccc(=O)n4C[C@H](OC(=O)NCc4ccccc4F)[C@@]3(O)C2)cc1 39.8 µM [inhibitor, single point]
CCOc1ccc(-n2c(SCC(=O)Nc3ccc(Br)cc3)nc3n[nH]c(C)c3c2=N)cc1 15 µM [inhibitor, single point]
CCOC(=O)N(C)c1c(CC)nc2c(OCc3cc(Cl)cc(Cl)c3)cccn12 22.4 µM [inhibitor, single point]
CCOC(=O)c1cc(CC)sc1NC(=O)CN1CCN(C(=O)c2ccco2)CC1 39.8 µM [inhibitor, partial curve, poor fit]
CC(C)(C)OC[C@H](NC(=O)c1[nH]cnc1C(=O)Nc1ccccc1F)C(=O)OC(C)(C)C 39.8 µM [inhibitor, single point]
CC(C)C[C@H](NC(=O)c1nc[nH]c1C(=O)NCc1ccccc1)C(=O)OC(C)(C)C 39.8 µM [inhibitor, partial curve, poor fit]
CCOC(=O)COc1ccccc1/C=C\[N+](=O)[O-] 12.6 µM [inhibitor, partial curve, poor fit]
O=C(CN1CCN(c2nc(-c3ccc(F)cc3)cs2)CC1)NCc1ccc2c(c1)OCO2 14.1 µM [inhibitor, partial curve, poor fit]
CCOC(=O)C1=C(C)N=C2c3ccccc3C(=O)C2C1c1ccc(C)cc1 (stereo unspecified) 35.5 µM [inhibitor, single point]
COc1ccc(NC(=O)C2CCCN(S(=O)(=O)c3cccc4cccnc34)C2)cc1 (stereo unspecified) 39.8 µM [inhibitor, partial curve, poor fit]
COc1cc(C(=O)N(C)CCOc2ccccc2)ccc1OCC(=O)Nc1cccc(C(F)(F)F)c1 31.6 µM [inhibitor, single point]
CCn1c2ccccc2c2cc(NC(=O)COC(=O)c3cc(S(N)(=O)=O)c(Cl)cc3Cl)ccc21 14.1 µM [inhibitor, single point]
CCc1nccn1C(=O)c1cnn2c(C(F)F)cc(-c3ccc(C)cc3)nc12 35.5 µM [inhibitor, single point]
Cc1cccc(C(=O)NC(=S)NNC(=O)c2cccs2)c1 31.6 µM [inhibitor, partial curve, poor fit]
CO/N=C1\CCCc2c(C(=O)NN)sc(SC)c21 28.2 µM [inhibitor, partial curve, poor fit]
Cc1ccc(CSc2nnc(SCC(=O)N/N=C/c3c[nH]c4ccccc34)s2)cc1 7.52 µM [inhibitor, full curve]
Cc1ccc(C)c(N=Nc2ccc(O)c3ncccc23)c1 31.6 µM [inhibitor, single point]
Cc1ccc(-c2cc(C(=O)N3N=C(C(F)F)CC3(O)C(F)F)c3ccccc3n2)cc1C (stereo unspecified) 39.8 µM [inhibitor, single point]
COc1ccc(-n2nc3c(N4CCC(C(=O)NCCc5ccccc5C)CC4)nnc(C)c3c2C)cc1 15.8 µM [inhibitor, partial curve, poor fit]
O=C(c1ccc(Cl)cc1)C1CCCN(Cc2cnn(-c3ccccc3)c2)C1 (stereo unspecified) 33.6 µM [inhibitor, partial curve, poor fit]
Cc1cc(=O)oc2cc(NC(=O)c3ccc(OC(F)F)cc3)ccc12 14.1 µM [inhibitor, single point]
Cc1cc(=O)oc2c1c(C)nn2-c1cccc(Cl)c1 1.26 µM [inhibitor, full curve]
CCCSC1=NC2(CCN(C(=O)NC3CCCCC3)CC2)N=C1c1ccc(OC)cc1 31.6 µM [inhibitor, partial curve, poor fit]
Cc1sc2ncnc(NCC(O)c3ccc([N+](=O)[O-])cc3)c2c1C (stereo unspecified) 11.2 µM [inhibitor, partial curve]
CCC(=O)NC(c1ccc(C)cc1)c1cc(Cl)c2cccnc2c1O (stereo unspecified) 17.8 µM [inhibitor, partial curve]
O=C(c1ccccc1)c1nn(-c2ccccc2)c(=O)cc1C(F)(F)F 39.8 µM [inhibitor, single point]
O=C(Nc1ccccc1)C1=C(O)CC(c2ccco2)CC1=Nc1ccccc1 (stereo unspecified) 20 µM [inhibitor, partial curve, poor fit]
CC(C)(C)c1cc(NC(=O)CCSc2nnc3ccccn23)cc(C(C)(C)C)c1 8.91 µM [inhibitor, partial curve, poor fit]
COc1ccc(CCn2c(C)cc(C(=O)CSc3nc(N)cc(=O)[nH]3)c2C)cc1 22.4 µM [inhibitor, single point]

Activity change, negative = inhibition, inconclusive:
CCCN(CCC)Cc1c(C(=O)N/N=C/C(C)=C\c2ccco2)nnn1-c1nonc1N -75.4% [inhibitor]

Activity change, negative = inhibition, inactive:
O=C(NCc1ccccc1Cl)c1cc(-c2ccccc2)n[nH]1 1.5%
O=C(OCC(=O)N1CCCC1=O)c1ncc(Cl)c(Cl)c1Cl 6.29%
c1csc(CNc2ncnc3ccc(-c4ccoc4)cc23)c1 8.77%
COc1cc(C2=NOC(C(=O)NCc3cccnc3)C2)cc(OC)c1OC (stereo unspecified) 0%
COc1ccc(S(=O)(=O)N(CC(=O)N2CCOCC2)Cc2ccccc2)cc1C -4.91%
COc1ccc(OCc2ccc(-c3nc(C#N)c(NCc4ccc(F)cc4)o3)o2)cc1 -17.4%
CCOc1ccc(OCCOc2cccc(C(F)(F)F)c2)cc1 -5.67%
CC(C)(C(=O)O)c1ccc([C@H](O)CCCN2CCC(C(O)(c3ccccc3)c3ccccc3)CC2)cc1 -1.83%
CCCCNC(=S)Nc1ccc([N+](=O)[O-])cc1 -19.9%
O=C1/C(=C/N(C(=O)c2ccco2)c2ccc(Br)cc2)Sc2ccccc21 -7.02%
CCOC(=O)c1cccc(-n2c(C)cc(C=O)c2C)c1 -3.54%
CCOC(=O)[C@@H]1[C@H]2COc3ccccc3[C@@H]2N2C(=O)N(c3ccc(Cl)cc3)C(=O)[C@@]12C 10.5%
C=C1C(=CC=C2CCC[C@]3(C)[C@@H]([C@H](C)CCCC(C)(C)O)CC[C@@H]23)C[C@@H](O)C[C@@H]1O 35.4%
CN1CC(=O)NC1=NC(=O)c1cc(F)c(F)cc1Cl -5.04%
Cn1c(=O)c2c(ncn2CC(=O)Nc2cc(S(=O)(=O)N3CCCCC3)ccc2Cl)n(C)c1=O 2.82%
O=C(O)CSc1nnc2c(n1)[nH]c1ccccc12 46.3%
COc1cccc(CNC(=O)CN(c2cc(C)cc(C)c2)S(=O)(=O)c2c(C)noc2C)c1 -3.14%
CCC(CC)c1nnc(NC(=O)C2CC(=O)N(C3CCCC3)C2)s1 (stereo unspecified) -3.83%
CCCCNC(=O)C[C@@H]1C[C@@]2(C(=O)OCC)CCC=C2N(CCC2=CCCCC2)C1=O -2.59%
CC(C)c1ccc([C@@H]2O[C@H](C)CC3=C2C(=O)OC(C)(C)O3)cc1 9.38%
O=[N+]([O-])c1cc(Br)cc(/C=N/n2cnnc2)c1O -18.1%
